Assay results taken from PubChem BioAssay AID2675 (National Center for Advancing Translational Sciences (NCATS), 2010).
Among all 280,000 compounds or so, about 100 (0.036%) were called active. Inconclusive results, whose numbers are uncertain, are shown with a selection of clear calls. Calls follow the shape of the dose curve; as a rule, active = well fitted inhibition curve with a large enough effect in the signal ratio, with a control signal flat (not every such curve was filed as active); inconclusive = small, poorly fitted or top-dose-only effect, or effect the other way, or a change in a side signal; inactive = no such curve, though single readings can be large or run the other way; the % refers to the signal ratio. Potencies of inconclusive entries are doubtful fits and often do not repeat. A note “side channel” means that the fit belongs to a control or component signal, not to the main read-out.
% is scaled to controls: 0 for no effect and ±100 for the full control effect; potency is read from the fitted curve at half-maximal effect; tags tell the direction and shape of the fitted curve or compound fluorescence and quenching.

What follows are compounds tested against Muscleblind-like protein 1 (Homo sapiens) (UniProt Q9NR56) (assay: qHTS Assay for Inhibitors of MBNL1-poly(CUG) RNA binding). Settings: TR-FRET MBNL1-His/biotin-(CUG)12 binding, 665/545 ratio; activity change, negative = inhibition: at 57.5 µM (top of the series).
Sequence of UniProt Q9NR56 (Q9NR56 whole entry, looked up): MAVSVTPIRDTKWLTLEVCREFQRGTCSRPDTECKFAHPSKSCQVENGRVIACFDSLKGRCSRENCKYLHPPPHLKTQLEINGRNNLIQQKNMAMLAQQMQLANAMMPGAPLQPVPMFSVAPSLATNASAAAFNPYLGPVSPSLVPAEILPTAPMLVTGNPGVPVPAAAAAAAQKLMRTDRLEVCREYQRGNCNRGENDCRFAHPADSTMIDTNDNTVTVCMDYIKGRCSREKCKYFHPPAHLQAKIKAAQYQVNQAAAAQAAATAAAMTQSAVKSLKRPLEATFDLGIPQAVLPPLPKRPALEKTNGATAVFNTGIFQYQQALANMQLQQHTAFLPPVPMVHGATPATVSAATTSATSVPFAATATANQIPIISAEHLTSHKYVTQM
Method in brief: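 MBNL1-His + Biotin-(CUG)12, cpd titration 92 nM–58 uM; Tb anti-His Ab 0.055 ng/ul, SA-XL665 5 nM (final); 60 min RT; ratiometric 665/545 nm, Ex 340 nm; normalized to buffer and full-complex controls.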
For `O=[N+]([O-])c1ccc(/C([O-])=C(/C(=S)NCc2ccco2)[n+]2ccccc2)cc1`, the Potency was inconclusive: 15.8 µM [quencher, side channel, partial curve].
`CCn1c(Cc2ccccc2)nnc1SCC(=O)c1cccc([N+](=O)[O-])c1` was tested, and the Potency was inconclusive: 15.8 µM [quencher, side channel, partial curve].
For `O=C(CSc1nc2c(c(=O)n1-c1ccccc1)SCC2)N1CCOCC1`, the Potency was inconclusive: 17.8 µM [quencher, side channel, partial curve, poor fit].
With `O=C(C[n+]1cc(Br)cc2ccccc21)c1ccccc1` the Potency was inconclusive: 7.94 µM [quencher, side channel, full curve].
For `OCCC1CN(Cc2cccc3nccnc23)CCN1Cc1ccc(F)c(F)c1` (stereo unspecified), the Potency was inconclusive: 31.6 µM [quencher, side channel, single point].
For `Nc1nc(-c2ccccc2)[nH]c(=O)c1N`, the activity change, negative = inhibition was inactive: 24% [at 11.5 µM].
With `O=C(Nc1ccccc1)O/N=C1\CCCCC1c1ccc([N+](=O)[O-])cc1[N+](=O)[O-]` (stereo unspecified) the Potency was inconclusive: 14.1 µM [quencher, side channel, partial curve].
For `CN(C)c1cccc2c(C=C(C#N)C#N)ccc(N(C)C)c12`, the Potency was inconclusive: 25.1 µM [quencher, side channel, single point].
With `C=CCNC(=O)CN1C(=O)c2cccc3cccc1c23` the Potency was inconclusive: 28.2 µM [quencher, side channel, partial curve].
For `Cc1ccc(S(=O)(=O)N2CCCC2C(=O)N(C)Cc2cccs2)cc1` (stereo unspecified), the Potency was inconclusive: 0.708 µM [quencher, side channel, single point].
In the case of `COC(C(=O)NNS(=O)(=O)c1ccccc1[N+](=O)[O-])c1ccccc1` (stereo unspecified), the Potency is reported as inconclusive: 22.4 µM [quencher, side channel, single point].
For `O=C(O)c1ccc2c(=O)n3c(nc2c1)/C(=C/c1ccc(C(F)(F)F)cc1)CC3`, the Potency was inconclusive: 2.82 µM [quencher, side channel, full curve, poor fit].
In the case of `COCCC(=O)N1CCC(n2nccc2NC(=O)c2ccccc2C)CC1`, the Potency is reported as “inactive”.
In the case of `CC1=C(C#N)c2nc(N)c(C#N)c(C)c2/C1=C\c1ccc(C)cc1`, the Potency is reported as inconclusive: 17.8 µM [quencher, partial curve].
`N#C/C(=C\c1ccc(O)c([N+](=O)[O-])c1)c1nc2ccccc2s1` was tested, and the Potency was inconclusive: 35.5 µM [quencher, side channel, single point].
For `COc1ccc(NC(=O)c2cc([N+](=O)[O-])ccc2N2CCCCC2)cc1`, the Potency was inconclusive: 15.8 µM [quencher, side channel, partial curve].
`CCOc1c(O)ccc(/C=C2\SC(=S)NC2=O)c1[N+](=O)[O-]` was tested, and the Potency was inconclusive: 35.5 µM [quencher, side channel, single point].
In the case of `O=C(CSc1ccc2nnc(-c3ccccn3)n2n1)NCc1ccco1`, the Potency is reported as inconclusive: 3.16 µM [quencher, side channel, partial curve].
For `C[C@H](NS(=O)(=O)c1ccc(Cl)c(Cl)c1)C(=O)OCc1cc(=O)n2cc(Br)ccc2n1`, the Potency was inconclusive: 17.8 µM [quencher, side channel, partial curve].
For `COc1ccc(-c2c(-c3ccccc3)c(C(=O)C(=O)NCCCN(C)C)n3ccc4cc(OC)c(OC)cc4c23)cc1OC`, the Potency was inconclusive: 11.2 µM [quencher, side channel, partial curve].
For `CCOC(=O)Cc1c(C)c2c(C)nn(-c3ccccc3)c2oc1=O`, the Potency was “inactive”.
With `COc1cccc(C(=O)/C=C/Nc2ccc(S(=O)(=O)Nc3cc(OC)nc(OC)n3)cc2)c1` the Potency was inconclusive: 25.1 µM [quencher, side channel, partial curve].
In the case of `CN(C)CCN(C(=O)CN1C(=O)c2ccccc2C1=O)c1nc2cc3c(cc2s1)OCO3`, the Potency is reported as inconclusive: 15.8 µM [quencher, side channel, partial curve].
`CCCCN(CC)S(=O)(=O)c1ccc(C(=O)N(CCCN(C)C)c2nc3cc(C)cc(C)c3s2)cc1` was tested, and the Potency was “inactive”.
`CCNc1nc(N)c(C(=O)c2ccc(Cl)s2)s1` was tested, and the Potency was inconclusive: 25.1 µM [quencher, side channel, partial curve].
With `NS(=O)(=O)c1ccc(-n2ncc3c(=O)[nH]c(SCC(=O)Nc4nccs4)nc32)cc1` the Potency was inconclusive: 39.8 µM [inhibitor, single point].
For `c1coc(C2Nc3cccc4cccc(c34)N2)c1`, the Potency was inconclusive: 15.8 µM [quencher, side channel, partial curve].
With `N#CC(C#N)=C1C=C2C=C(N3CCOCC3)CCC2CC1` (stereo unspecified) the Potency was inconclusive: 1.58 µM [quencher, side channel, full curve].
For `O=C1NC(=Nc2ccc(O)cc2)S/C1=C/c1ccco1`, the Potency was “inactive”.
`COC(=O)C1=C(C)N(C)C(=O)NC1c1ccc([N+](=O)[O-])o1` (stereo unspecified) was tested, and the Potency was inconclusive: 28.2 µM [quencher, side channel, single point].
For `Cc1cnc(NC(=O)c2ccc3c(c2)C(=O)N(Cc2ccco2)C3=O)s1`, the Potency was inconclusive: 6.31 µM [quencher, side channel, partial curve].
With `CNc1cccccc1=S` the Potency was inconclusive: 20 µM [quencher, side channel, partial curve].
`Cc1cc(C(=O)N2CCN(c3ccc([N+](=O)[O-])cc3)CC2)no1` was tested, and the Potency was inconclusive: 20 µM [quencher, side channel, partial curve].
In the case of `CCCC(C)NC(=O)CN1C(=O)c2cccc3cccc1c23` (stereo unspecified), the Potency is reported as inconclusive: 20 µM [quencher, side channel, partial curve].
`Cn1nc(C(=O)Nc2sccc2C(N)=O)ccc1=O` was tested, and the Potency was inconclusive: 14.1 µM [quencher, side channel, partial curve].
In the case of `COc1ccccc1/C=C/C=C1\Oc2c(ccc(O)c2CN(C)C)C1=O`, the Potency is reported as inconclusive: 14.1 µM [quencher, side channel, partial curve].
